Here are results for 6 compounds from PubChem BioAssay AID216 (DTP/NCI, 2004).

The test has as its system BDF1 mice, P288 leukemia ip, survival T/C. Briefly: NCI In Vivo Anticancer Drug Screen. Data for tumor model P288 Lymphocytic Leukemia (intraperitoneal) in B6D2F1 (BDF1) mice. The note with it: endpoint: survival time, mean or median, higher = longer survival. The procedure: The antitumor activity of compounds was measured in mice bearing transplantable tumors. Survival or tumor size were measured and the results are expressed as the measurement made in the treated group (T) divided by the measurement made in the vehicle treated control group (C). The tumor model used in this assay is P288 Lymphocytic Leukemia (intraperitoneal) in B6D2F1 (BDF1) mice

Toxic doses and inconclusive results are not listed. The source holds more than one record for some entries. This list holds those alone. The source may hold further records. The records of an entry are repeated measurements in other runs, samples, wells, individuals or studies.

Take `N#[N+]c1cnc([O-])[nH]c1=O`: for the setting “dose: 5.0 mg/kg/injection, schedule: Q01DX010 (ip), vehicle: saline”, the T/C was 104 % of control and 150 % of control.
In the case of `O=C(Nc1ccc(C2=NCCN2)cc1)c1ccc(C(=O)Nc2ccc(C3=NCCN3)cc2)c(Cl)c1`, the T/C (dose: 15.0 mg/kg/injection, schedule: Q01DX Z (ip), vehicle: water) was 107 % of control and 181 % of control.
Consider `O=c1[nH]cc(F)c(=O)[nH]1`, for which the T/C (dose: 40.0 mg/kg/injection, schedule: Q01DX010 (ip), vehicle: saline) is on record as 88 % of control, 95 % of control, 156 % of control.
As to `O=C(Nc1ccc(C2=NCCN2)cc1)c1ccc(C(=O)Nc2ccc(C3=NCCN3)cc2)cc1`, the T/C (dose: 64.0 mg/kg/injection, schedule: Q01DX010 (ip), vehicle: other) is 120 % of control and 158 % of control.
`CN(C)c1ccc(Nc2c3ccccc3nc3ccccc23)cc1`: the T/C (dose: 80.0 mg/kg/injection, schedule: Q01DX010 (ip), vehicle: saline) was 100 % of control and 166 % of control.
Take `O=P1(N(CCCl)CCCl)NCCCO1` (stereo unspecified): the T/C (dose: 22.5 mg/kg/injection, schedule: Q01DX010 (ip), vehicle: saline) is 108 % of control and 169 % of control.
